The values that follow come from publication PMC3169550.

By UniProt entry, the sequences of proteins in these tests, tags left out.
UniProt A2A9T0: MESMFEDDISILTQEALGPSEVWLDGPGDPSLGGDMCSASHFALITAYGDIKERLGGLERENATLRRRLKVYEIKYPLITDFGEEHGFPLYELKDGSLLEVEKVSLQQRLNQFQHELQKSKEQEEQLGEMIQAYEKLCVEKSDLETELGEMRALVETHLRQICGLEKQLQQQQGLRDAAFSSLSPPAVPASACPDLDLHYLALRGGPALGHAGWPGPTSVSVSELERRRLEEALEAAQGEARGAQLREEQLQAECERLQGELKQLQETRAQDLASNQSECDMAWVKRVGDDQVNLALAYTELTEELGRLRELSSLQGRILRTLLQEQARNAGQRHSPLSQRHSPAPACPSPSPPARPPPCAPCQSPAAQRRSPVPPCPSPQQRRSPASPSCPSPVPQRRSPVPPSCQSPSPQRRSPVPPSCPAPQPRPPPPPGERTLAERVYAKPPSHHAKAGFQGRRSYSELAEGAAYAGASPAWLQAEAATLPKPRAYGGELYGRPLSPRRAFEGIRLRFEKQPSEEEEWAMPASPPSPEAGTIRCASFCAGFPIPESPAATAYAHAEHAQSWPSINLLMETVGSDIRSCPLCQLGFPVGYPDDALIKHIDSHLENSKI
UniProt Q9QYP6: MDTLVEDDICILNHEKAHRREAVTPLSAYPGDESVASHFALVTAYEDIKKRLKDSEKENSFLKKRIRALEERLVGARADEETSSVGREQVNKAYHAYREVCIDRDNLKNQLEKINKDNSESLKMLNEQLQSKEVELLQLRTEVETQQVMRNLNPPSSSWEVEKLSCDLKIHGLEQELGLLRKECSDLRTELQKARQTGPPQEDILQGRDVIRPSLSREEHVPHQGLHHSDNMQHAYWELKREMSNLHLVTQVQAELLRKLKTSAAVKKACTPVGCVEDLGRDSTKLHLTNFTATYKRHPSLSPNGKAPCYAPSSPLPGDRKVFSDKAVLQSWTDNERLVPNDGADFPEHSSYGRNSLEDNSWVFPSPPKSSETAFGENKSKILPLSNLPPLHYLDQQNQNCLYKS

Assay [1] addresses T1, Myc-tagged TBK1 L711A (murine) (UniProt Q9WUN2).
T1 sequence: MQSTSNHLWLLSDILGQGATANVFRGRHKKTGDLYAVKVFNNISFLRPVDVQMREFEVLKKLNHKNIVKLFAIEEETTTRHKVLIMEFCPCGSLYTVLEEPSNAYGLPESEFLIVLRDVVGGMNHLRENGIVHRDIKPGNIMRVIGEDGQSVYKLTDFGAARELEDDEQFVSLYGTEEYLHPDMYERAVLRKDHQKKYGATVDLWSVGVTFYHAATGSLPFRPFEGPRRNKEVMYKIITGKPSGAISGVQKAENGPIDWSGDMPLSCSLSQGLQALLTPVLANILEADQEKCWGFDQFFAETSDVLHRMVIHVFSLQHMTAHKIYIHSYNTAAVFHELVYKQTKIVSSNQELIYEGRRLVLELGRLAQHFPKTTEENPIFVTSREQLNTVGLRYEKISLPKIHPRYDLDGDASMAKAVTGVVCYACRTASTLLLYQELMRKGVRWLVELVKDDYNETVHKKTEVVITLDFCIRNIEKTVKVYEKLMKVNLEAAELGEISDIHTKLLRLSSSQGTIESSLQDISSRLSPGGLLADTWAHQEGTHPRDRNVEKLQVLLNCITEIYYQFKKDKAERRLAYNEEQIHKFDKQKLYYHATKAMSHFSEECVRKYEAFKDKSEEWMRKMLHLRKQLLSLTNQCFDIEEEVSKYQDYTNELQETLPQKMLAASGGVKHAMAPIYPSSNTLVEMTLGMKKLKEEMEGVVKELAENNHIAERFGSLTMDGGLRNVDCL
The experiment in a line: co-IP; Myc-tagged TBK1 constructs coexpressed with V5-tagged adaptors in HEK293 cells; Frackelton buffer (10 mM Tris/HCl pH 7.5, 50 mM NaCl, 1% Triton X-100); anti-Myc agarose or anti-V5 agarose, 2 h at 4°C; immunoblotting with anti-Myc and anti-V5.

In assay [2] the target is T2, Myc-tagged TBK1 M690A (murine) (UniProt Q9WUN2).
T2 sequence: T1 sequence with M690A, A711L
The description is as above.

Residue numbers refer to the chain shown, from its start. Results are given in words; binding and its absence hold for the method and conditions named. Binding seen in cells or lysates may run through a third protein. Some results given as binding are weak or reduced against the parent protein; the word gives no strength. Sequences can lack the tags named with a protein.

For the substance “V5-tagged Sintbad (from UniProt A2A9T0 1-611)”, the binding result in assay [1] and in assay [2] was “binds” throughout.

Turning to “V5-tagged NAP1 (from UniProt Q9QYP6 1-405)”, the binding entry in assay [1] and in assay [2] was “binds” throughout.
